From publication PMC4336329 (PLoS ONE, 2015)
Screen size: about 310,000 compounds; about 14,000 (4.5%) showed an effect of 50% or more. Effects have a minus sign here. The list shows a part of the results.

Molecular target: human ether-à-go-go-related gene (hERG) potassium channel (human, UniProt Q12809)
Assay: primary screen, population patch clamp on CHO cells stably expressing hERG
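Note: peak tail current of the secondary pulse compared with the same well before compound.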

Chain of human ether-à-go-go-related gene (hERG) potassium channel (Q12809 whole entry, looked up): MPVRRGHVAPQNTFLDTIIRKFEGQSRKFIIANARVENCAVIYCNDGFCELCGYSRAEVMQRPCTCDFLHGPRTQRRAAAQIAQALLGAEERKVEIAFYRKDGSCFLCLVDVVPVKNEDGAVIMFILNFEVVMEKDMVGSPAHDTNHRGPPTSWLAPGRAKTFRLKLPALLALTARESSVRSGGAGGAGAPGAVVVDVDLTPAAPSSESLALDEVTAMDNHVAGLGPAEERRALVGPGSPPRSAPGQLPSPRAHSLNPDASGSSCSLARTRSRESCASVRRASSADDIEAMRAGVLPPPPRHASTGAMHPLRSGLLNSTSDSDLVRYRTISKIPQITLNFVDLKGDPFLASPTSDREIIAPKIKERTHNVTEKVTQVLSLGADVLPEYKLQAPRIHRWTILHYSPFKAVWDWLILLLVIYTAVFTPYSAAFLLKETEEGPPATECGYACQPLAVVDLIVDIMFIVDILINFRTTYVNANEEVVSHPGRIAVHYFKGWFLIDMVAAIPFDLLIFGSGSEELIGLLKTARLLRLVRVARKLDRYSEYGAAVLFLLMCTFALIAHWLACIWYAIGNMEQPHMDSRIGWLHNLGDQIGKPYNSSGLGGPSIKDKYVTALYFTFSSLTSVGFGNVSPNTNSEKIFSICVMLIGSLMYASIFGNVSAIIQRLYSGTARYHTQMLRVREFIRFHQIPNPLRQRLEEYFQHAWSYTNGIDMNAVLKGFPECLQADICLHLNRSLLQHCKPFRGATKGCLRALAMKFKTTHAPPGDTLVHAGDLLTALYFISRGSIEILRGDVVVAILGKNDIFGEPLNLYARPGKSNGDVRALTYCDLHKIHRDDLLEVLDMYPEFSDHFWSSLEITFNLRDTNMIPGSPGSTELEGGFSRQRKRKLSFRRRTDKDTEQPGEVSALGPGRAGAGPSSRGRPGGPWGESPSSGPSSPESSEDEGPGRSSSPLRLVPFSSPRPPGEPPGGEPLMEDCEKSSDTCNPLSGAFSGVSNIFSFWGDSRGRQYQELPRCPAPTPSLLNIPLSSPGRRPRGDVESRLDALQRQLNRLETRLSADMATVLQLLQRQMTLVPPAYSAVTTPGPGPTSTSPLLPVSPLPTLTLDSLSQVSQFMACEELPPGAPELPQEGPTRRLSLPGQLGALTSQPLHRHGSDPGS

Row | Structure (SMILES) | hERG current change (%, negative = inhibition) at 10uM [%]
1 | Cc1cccc(C)c1NC(=S)N/N=C/c1ccc(OCCC(C)C)cc1 | -4.53
2 | CC1CCCCC12NC(=O)N(CC(=O)NCCc1ccccn1)C2=O (centres unmarked) | -18.2
3 | CC1(C)Cc2c(C#N)c(SCCC#N)nc(N3CCOCC3)c2CS1 | -34.7
4 | COc1cccc(CSc2nnc(C(F)(F)F)n2Cc2ccc(F)cc2)c1 | -32.5
5 | Cc1ccc2oc(C(=O)N(Cc3nccn3C)C(C)C)c(C)c2c1 | -30.1
6 | COc1ccc([N+](=O)[O-])c(OC)c1C(=O)NC(=O)Nc1c(F)c(F)c(F)c(F)c1F | 9.24
7 | O=C(c1ccccc1)N1N=C(c2ccccc2)CC1c1ccccc1O (centres unmarked) | -13.6
8 | CS(=O)(=O)N(CC(=O)Nc1c(F)cccc1F)c1ccc(C23CC4CC(CC(C4)C2)C3)cc1 | 20.4
9 | CCCn1nnnc1NCc1ccc(OC)cc1OC | 8.86
10 | CC(C)c1c(C(=O)N/N=C/c2ccc(OCc3ccccc3)cc2)nnn1-c1nonc1N | 21.7
11 | C/C(CC(=O)NCc1ccc(Cl)cc1)=N\NC(=O)COc1ccc(C)cc1Br | -33.1
12 | CCOC(=O)c1c(NC(=O)CC)sc(C(C)=O)c1C | 0.466
13 | CN(C)S(=O)(=O)n1cc(/C=C(\NC(=O)c2ccccc2)C(=O)NCCCn2ccnc2)c2ccccc21 | 8.31
14 | CC(=O)c1ccc2c(c1)OCCOCCOCCO2 | 8.76
15 | S=C(NC1CCCC1)NC1CC1 | 35.9
16 | Cc1ccc(Nc2nc(N)nc(-c3oc4ccccc4c3C)n2)cc1 | 4.38
17 | CCN(CC)C(=O)c1[nH]cnc1C(=O)NC1CCN(C(=O)OC(C)(C)C)CC1 | 22.7
18 | CCCCCC1CCC(c2nnc(SCC(C)=O)o2)CC1 (centres unmarked) | 19.1
19 | CCCCC(=O)OCC(=O)c1[nH]c(C)c(C(=O)OCC)c1C | 0.828
20 | Cc1ccc(NC(=O)c2ccc(OC(=O)C(C)Oc3ccc(Cl)cc3C)cc2)cc1 (centres unmarked) | 9.34
21 | Cc1cc(=O)n2c(C)n[nH]c2n1 | 4.11
22 | CCC(C)C(=O)Nc1cc(C(=O)OC)cc(C(=O)OC)c1 (centres unmarked) | 8.12
23 | Cc1cccn2c(=O)nc(SCC(=O)c3ccc(Cl)cc3)nc12 | -21.9

Row | Structure (SMILES) | hERG current change (%, negative = inhibition) at 10uM [%]
24 | O=C(Cn1cc2c(n1)CCCCC2)NCc1cccs1 | -5.87
25 | Cc1ccc(/C=N\NC(=O)C2CN(S(=O)(=O)c3ccccc3)CCN2S(=O)(=O)c2ccccc2)cc1 (centres unmarked) | -18
26 | Cc1nnc(N/N=C/c2ccc(-c3ccccc3F)o2)n1N.Cl | -40.3
27 | CCOC(=O)c1ccc(NC(=O)C(=O)NCC2(c3ccc(OC)cc3)CCOCC2)cc1 | -10.3
28 | O=C(CC(NS(=O)(=O)c1ccc(Cl)cc1)c1ccco1)NCc1cccnc1 (centres unmarked) | -18.1
29 | CN(C(=O)CSc1nc(-c2ccc(F)cc2)cs1)C1CCS(=O)(=O)C1 (centres unmarked) | -37.1
30 | CC(=O)Nc1ccc(-c2csc(NC(=O)c3ccc(C)o3)n2)cc1 | -6.43
31 | O=S(=O)(NCCN1CCCC1)c1ccc(C(F)(F)F)cc1 | 1.97
32 | Cc1ccc(S(=O)(=O)/N=C2\SC(CC(=O)Nc3ccc(F)cc3)C(=O)N2c2ccccc2)cc1 (centres unmarked) | 12.2
33 | COc1ccc(-n2c(-c3cc(-c4ccccc4)sc3N)n[nH]c2=S)cc1 | 12.8
34 | COCCNC(=O)C1CC(=O)N(C2CCCCC2)C1 (centres unmarked) | 11.8
35 | CCCOC(=O)Nc1ccc(S(=O)(=O)Nc2ncccn2)cc1 | 9.2
36 | CCC(=O)OCC(=O)Nc1cc(C)c(C)cc1[N+](=O)[O-] | 9.98
37 | Cc1cccc(C(C)(C)C)c1OCCN1CCCC1 | -6.22
38 | COCCn1nnnc1C(c1ccc(OC)cc1OC)N1CCN(c2ccccc2F)CC1.Cl (centres unmarked) | -9.23
39 | CC[C@@H](C)[C@@H](C(=O)N1CCNCC1)n1cc(CCC(=O)O)nn1.Cl | -5.79
40 | COc1ccccc1NC(=O)CCS(=O)(=O)c1cc2c(cc1Cl)NC(=O)CO2 | 1.94
41 | COc1ccc(OC)c(N(CC(=O)N2CCC(C)CC2)S(=O)(=O)c2ccccc2)c1 | -22.2
42 | CC1CC1C(=O)Nc1nc2ccc(S(C)(=O)=O)cc2s1 (centres unmarked) | 1.04
43 | Cc1ccc(C(=O)Nc2ccc3c(c2)OCO3)o1 | 1.96
44 | COc1ccc(CCC(=O)N2CCN(c3cccc(C)c3C)CC2)cc1 | -40.4
45 | CCc1nnc(NC(=O)c2cc(S(=O)(=O)N3CCN(c4ccccc4)CC3)ccc2Cl)s1 | 1
46 | Cc1ccc(C(=O)NC2CC(=O)N(c3ccc4c(c3)OCCO4)C2)cc1[N+](=O)[O-] (centres unmarked) | 14.6

Row | Structure (SMILES) | hERG current change (%, negative = inhibition) at 10uM [%]
47 | O=S(=O)(NC1CCCCC1N1CCN(c2ccccc2F)CC1)c1ccc(Cl)cc1 (centres unmarked) | 10.2
48 | CC(C)CC(=O)N1CCN(S(=O)(=O)c2ccccc2)CC1 | 0.444
49 | CC(O)CNCCCOc1cccc(C(F)(F)F)c1.O=C(O)C(=O)O (centres unmarked) | 14.6
50 | CCN(CC)CCCn1c(=S)[nH]c2ccc(Cl)cc2c1=O | -63.7
51 | COc1ccc(N2CCN(C3CCCN(C(=O)CN4CCOC4=O)C3)CC2)cc1 (centres unmarked) | -2.3
52 | Cn1cc(S(=O)(=O)N2CCCC2)cc1C(=O)N1CCN(c2cccc(Cl)c2)CC1 | -41.2
53 | FC(F)(F)c1nc(NCc2cccnc2)c2ccccc2n1 | 11.8
54 | CCOC(=O)C1(C)NC(c2ccco2)C2C(=O)N(C)C(=O)C21 (centres unmarked) | 13.6
55 | O=C(NC1CCCCC1)c1nn2c(C(F)(F)F)cc(-c3ccco3)nc2c1Br | 11.8
56 | O=C(O)c1ccc(-n2c(-c3ccc(Br)cc3)n[nH]c2=S)cc1 | 17.4
57 | CCc1cc2cc(C(=O)Nc3ccc(C)cc3)sc2s1 | 15
58 | COC(=O)c1ccc(CN2C(=O)NC3(CCCc4ccccc43)C2=O)o1 (centres unmarked) | 0.917
59 | CCN(Cc1ccccc1)C(=O)COC(=O)c1cc(=O)[nH]c2ccccc12 | -4.27
60 | COC(=O)NCC(c1ccc2c(c1)OCO2)N1CCN(c2ccc(OC)cc2)CC1 (centres unmarked) | -3.26
61 | COC(=O)c1ccc(N/C(=N/S(=O)(=O)c2ccccc2)c2ccccc2)cc1 | -34.6
62 | CCOc1ccc2c(c1)c(N=O)c(O)n2C | -5.91
63 | CCn1c(SCC(=O)Nc2sc3c(c2C#N)CCC(C(C)(C)C)C3)nnc1-c1ccco1 (centres unmarked) | 11.2
64 | Cc1ccc(N/N=C/C=C/c2ccco2)cc1 | 12.8
65 | CS(=O)(=O)Nc1ccc(C2=NN(C(=O)c3ccccc3)C(c3cccs3)C2)cc1 (centres unmarked) | -59.6
66 | Cc1csc(Sc2ccc(S(=O)(=O)N3CCCC3)cn2)n1 | -16.8
67 | COc1ccc(Cl)cc1C(=O)Nc1ccncc1 | -26.2
68 | COC(=O)[C@@H]1CCCN1C(=O)CCc1nnc(CCc2c[nH]c3ccccc23)o1 | 23.7
69 | COc1ccccc1C(CNC(=O)c1ccco1)N1CCCC1 (centres unmarked) | 1.23

Row | Structure (SMILES) | hERG current change (%, negative = inhibition) at 10uM [%]
70 | CC1=C(C)CC2C(=O)N(c3cccc4ccccc34)C(=O)C2C1 (centres unmarked) | -3.2
71 | COc1ccc(OC)c(/C=N/OC(=O)Nc2ccc(Cl)cc2)c1 | -1.74
72 | Cc1ccc(S(=O)(=O)Nc2cc(=O)[nH]c(SCc3ccc(Cl)cc3)n2)cc1 | 6.9
73 | O=C1CC2CS(=O)(=O)CC2N1C1CCCCC1 (centres unmarked) | 19.7
74 | O=c1cc(NCCO)c2ccccc2o1 | 5.57
75 | CCCCCOC(=O)C1C(c2ccccc2)C(C(=O)O)C1c1ccccc1 (centres unmarked) | -2.06
76 | Cn1nc(-c2ccccc2)c(CO)c1Sc1ccccc1 | 12.4
77 | CCN(CC(=O)Nc1c(F)cccc1F)C(=O)c1ccc(COc2ccccc2)o1 | -1.49
78 | COc1ccc(C(=O)N(CC2CCCO2)C(C(=O)NC2CCCC2)c2ccc(C)cc2)cc1OC (centres unmarked) | -13.4
79 | COc1ccc(Cc2nnc(NC(=O)c3ccc(OC)c(OC)c3)s2)cc1OC | 0.849
80 | COc1ccc(-c2[nH]ncc2CN2CCCO2)cc1F | 20.1
81 | COc1ccc(OC)c(N(CC(=O)NCc2ccncc2)S(C)(=O)=O)c1 | 19
82 | Nc1cccc(C(=O)Nc2ccccc2Cl)c1 | 8
83 | CCOc1ccc(S(=O)(=O)NCC(=O)NC2CCCCC2)cc1 | 3
84 | N#Cc1ccc(NC(=O)c2cc(=O)c3ccccc3o2)cc1 | -13.6
85 | COc1ccc(CNC(=O)CCn2cccc2)cc1 | 1.9
86 | COc1ccc(-n2nc3c(c2NC(=O)c2c(F)cccc2Cl)CS(=O)C3)cc1 (centres unmarked) | -3.74
87 | COCCCNC(=O)Cn1cc(/C=C(\C#N)C(=O)NC2CC2)c2ccccc21 | -7.95
88 | Cc1onc(-c2ccccc2)c1C(=O)NNC(=O)c1ccccc1O | 10.3
89 | Cc1ccccc1N1CCN(c2ncnc3scc(-c4cccs4)c23)CC1 | -1.45
